Test results from a collection of fitness landscapes (doi:10.1016/j.celrep.2020.107928).
Whole data set: some 81,000 sequences, median “one-hybrid fitness for binding parS DNA” near -0.17, cut for the highest 2% near 0.51. The list shows a part of the results.

B1: Caulobacter ParB omega fusion; a variant is named by its letters at X, in order, B8GW30 (parent)
chain: MESVVVGEPGMSEGRRGLGRGLSALLGEVDAAPAQAPGEQLGGSREAPIEILQRNPDQPRRTFREEDLEDLSNSIREKGVLQPILVRPSPDTAGEYQIVAGERAWRAAQRAGLKTVPIMVRELDDLAVLEIGIIENVQRADLNVLEEALSYKVLMEKFERTQENIAQTIGKSXSHVANXMRLLXLPDEVQSYLVSGELTAXHARAIAAAADPVALAKQIIEGGLSVRETEALARKAPNLSAGKSKGGRPPRVKDTDTQALESDLSSVLGLDVSIDHRGSTGTLTITYATLEQLDDLCNRLTRGI

Variants of: B1
Experiment: one-hybrid fitness for binding parS DNA (scaled: cognate 1, non-cognate 0); higher = stronger binding
Conditions: with parS DNA site
Summary of the method: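 Bacterial one-hybrid selection in E. coli USO rpoZ- hisB- pyrF- with a HIS3 reporter carrying the site 19 bp from the promoter, screening Caulobacter ParB libraries with four specificity codons randomised (NNS). Cells grew 48 hours at 37°C on M9-minus-histidine plus 0.1 mM IPTG and 5 mM 3-AT. Plasmids before and after selection were Illumina-sequenced, three replicate libraries pooled, and variants under 10 reads dropped. Fitness is the log change in variant-to-wild-type read ratio, rescaled to cognate 1, non-cognate 0.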

| Variant | one-hybrid fitness for binding parS DNA |
| --- | --- |
| QEMT | ≤ 0.2 |
| VTGP | ≤ 0.2 |
| PYQS | ≤ 0.2 |
| SYNK | ≤ 0.2 |
| HLNG | ≤ 0.2 |
| YMRG | ≤ 0.2 |
| EARV | ≤ 0.2 |
| HNAR | ≤ 0.2 |
| AWVC | ≤ 0.2 |
| VAAC | ≤ 0.2 |
| YGKM | ≤ 0.2 |
| YESR | ≤ 0.2 |
| QADI | ≤ 0.2 |
| LNPM | ≤ 0.2 |
| LEKQ | ≤ 0.2 |
| LIWR | ≤ 0.2 |
| AGIA | ≤ 0.2 |
| SKLA | ≤ 0.2 |
| EKLV | ≤ 0.2 |
| FYNS | ≤ 0.2 |
| KWNT | ≤ 0.2 |
| QQYP | ≤ 0.2 |
| WSNR | ≤ 0.2 |
| KAKT | ≤ 0.2 |
| WHLG | ≤ 0.2 |

| Variant | one-hybrid fitness for binding parS DNA |
| --- | --- |
| NVLS | ≤ 0.2 |
| NVTD | ≤ 0.2 |
| RLFL | ≤ 0.2 |
| IRWV | ≤ 0.2 |
| RFCD | ≤ 0.2 |
| QRCG | ≤ 0.2 |
| YQKV | ≤ 0.2 |
| EYVG | ≤ 0.2 |
| DQKG | ≤ 0.2 |
| ALSP | ≤ 0.2 |
| RPFS | ≤ 0.2 |
| LTLH | ≤ 0.2 |
| GFSA | ≤ 0.2 |
| MSEC | ≤ 0.2 |
| REEG | ≤ 0.2 |
| LSLF | ≤ 0.2 |
| RRSE | ≤ 0.2 |
| ARYI | ≤ 0.2 |
| DDTM | ≤ 0.2 |
| AWPC | ≤ 0.2 |
| RVAP | ≤ 0.2 |
| PKHM | ≤ 0.2 |
| LTNK | ≤ 0.2 |
| SIGP | ≤ 0.2 |
| QKDA | ≤ 0.2 |

| Variant | one-hybrid fitness for binding parS DNA |
| --- | --- |
| RSDT | 0.696 |
| RWPF | ≤ 0.2 |
| ASTC | ≤ 0.2 |
| YYDN | ≤ 0.2 |
| TTFY | ≤ 0.2 |
| HELA | ≤ 0.2 |
| RDLE | ≤ 0.2 |
| KLTV | ≤ 0.2 |
| SSES | ≤ 0.2 |
| DKFY | ≤ 0.2 |
| VATP | ≤ 0.2 |
| PLVT | ≤ 0.2 |
| CPMS | ≤ 0.2 |
| WNDC | ≤ 0.2 |
| KLNG | ≤ 0.2 |
| WAVG | ≤ 0.2 |
| HIPC | ≤ 0.2 |
| ALKY | ≤ 0.2 |
| QRQE | ≤ 0.2 |
| RRHS | 0.645 |
| HPCR | ≤ 0.2 |
| NMAN | ≤ 0.2 |
| CWAM | ≤ 0.2 |
| HTMY | ≤ 0.2 |
| AQTC | ≤ 0.2 |

| Variant | one-hybrid fitness for binding parS DNA |
| --- | --- |
| KWKV | ≤ 0.2 |
| QGIL | ≤ 0.2 |
| LIEL | ≤ 0.2 |
| NDPR | ≤ 0.2 |
| HAFP | ≤ 0.2 |
| SRQD | ≤ 0.2 |
| KRIL | ≤ 0.2 |
| YRYY | ≤ 0.2 |
| DFRT | ≤ 0.2 |
| VSDT | ≤ 0.2 |
| NSAF | ≤ 0.2 |
| SEER | ≤ 0.2 |
| LPTS | ≤ 0.2 |
| QKNV | ≤ 0.2 |
| GLKT | ≤ 0.2 |
| SYIG | ≤ 0.2 |
| PEIW | ≤ 0.2 |
| MQSS | ≤ 0.2 |
| HPML | ≤ 0.2 |
| YCGR | ≤ 0.2 |
| IVDS | ≤ 0.2 |
| FSVG | ≤ 0.2 |
